Experimental data reported in US20240317847A1 (Bayer, published 2024).
Positions count from the first letter of the chain named. One block for each binder: values may come before it.

Experiments:
human IL-11 [1] = target: T1, human IL-11 (human, UniProt P20809 22-199); experiment: cell-based or functional assay
T1 sequence: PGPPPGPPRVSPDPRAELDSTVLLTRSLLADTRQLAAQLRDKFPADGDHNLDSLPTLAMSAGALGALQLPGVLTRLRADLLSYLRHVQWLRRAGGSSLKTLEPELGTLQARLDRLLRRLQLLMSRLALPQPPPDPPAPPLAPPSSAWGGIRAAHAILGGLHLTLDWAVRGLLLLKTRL

murine IL-11 [2] = target: T2, murine IL-11 (mouse, UniProt P47873 22-199); experiment: cell-based or functional assay
T2 sequence: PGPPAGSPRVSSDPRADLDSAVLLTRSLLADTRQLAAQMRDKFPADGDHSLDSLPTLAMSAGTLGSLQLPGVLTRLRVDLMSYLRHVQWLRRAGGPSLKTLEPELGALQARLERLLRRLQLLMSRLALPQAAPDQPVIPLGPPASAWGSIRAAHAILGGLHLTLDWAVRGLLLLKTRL

cynomolgus IL-11 [3] = target: T3, cynomolgus IL-11 (cynomolgus, UniProt P20808 22-199); experiment: cell-based or functional assay
T3 sequence: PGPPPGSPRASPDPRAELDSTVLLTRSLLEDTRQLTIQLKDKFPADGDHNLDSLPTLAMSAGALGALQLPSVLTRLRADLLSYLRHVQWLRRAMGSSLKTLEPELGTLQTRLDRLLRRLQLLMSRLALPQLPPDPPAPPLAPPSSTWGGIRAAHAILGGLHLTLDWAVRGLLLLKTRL

rat IL-11 [4] = target: T4, rat IL-11 (rat, UniProt Q99MF5 22-199); experiment: cell-based or functional assay
T4 sequence: T2 sequence with S50N, L84F, G94A, V137A, I138V

human IL-11 [5] = target: T1, human IL-11; experiment: SPR 37 C, antibody captured, IL-11 as analyte
Description: (§1) To assess the binding kinetics and affinity of anti-IL-11 antibodies as well as their species cross-reactivity profile, binding assays were conducted using surface plasmon resonance (SPR). Binding assays were performed on a Biacore T200 instrument or on a Biacore 8K+ instrument (Cytiva) at 37° C. using assay buffer HBS EP+, 300 mM NaCl, 1 mg/ml BSA, 0.05% NaN3. Antibodies were captured either via anti-human Fc IgGs (“Human antibody capture kit”, Order No. BR100839, Cytiva) or via anti-mouse Fc IgGs (“Mouse antibody capture kit, Order No. BR100383, Cytiva) covalently amine coupled to a Series S CM5 sensor chip (Cytiva) depending on the isotype. The amine coupling was carried out according to the manufacturer's instructions using 1-ethyl-3-(3-dimethylaminopropyl) carbodiimide hydrochloride (EDC), N-hydroxysuccinimide (NHS) and ethanolamine HCl, pH 8.5 (“Amine Coupling Kit” BR-1000-50, Cytiva.). Human, mouse, cynomolgus or rat IL-11 was used as analyte at several dilutions within the concentration range from 0.05-200 nM. For binding assays with only one concentration 200 nM IL-11 was used. The sensor surface was regenerated with glycine pH 1.7 after each antigen injection. Obtained sensorgrams were double referenced (subtraction of reference flow cell signal and buffer injection) and were fitted to a 1:1 Langmuir binding model to derive kinetic data using the Biacore T200 Evaluation software or the Biacore Insight software. If no value is reported, there was either no binding or very low binding and multiphasic binding behavior. Values below 1E-12 were considered to be below the dynamic range of the instrument and set to <1E-12.

murine IL-11 [6] = target: T2, murine IL-11; experiment: SPR 37 C, antibody captured, IL-11 as analyte
Description: as §1

cynomolgus IL-11 [7] = target: T3, cynomolgus IL-11; experiment: SPR 37 C, antibody captured, IL-11 as analyte
Description: as §1

rat IL-11 [8] = target: T4, rat IL-11; experiment: SPR 37 C, antibody captured, IL-11 as analyte
Description: as §1

human IL-11 [9] = target: T1, human IL-11; experiment: Di-complex ELISA, competitor murine IL11RA-Fc on coated IL-11
murine IL-11 [10] = target: T2, murine IL-11; experiment: as above
human IL-11 [11] = target: T5, human IL-11 (human, UniProt P20809 22-199); experiment: Tri-complex ELISA, hIL-11 + mIL-11Ra-Fc + hgp130-Fc, inhibition of complex formation
T5 construct: Invigate recombinant protein; biotinylated when immobilized in the Di-complex ELISA; also called hIL11; hIL-11
T5 sequence: T1 sequence
Description: In the Tri-complex ELISA format IL-11 antibodies are tested for their ability to inhibit the formation of a complex consisting of murine or human gp130-Fc fusion protein, with murine or human IL-11, and a murine IL11RA-Fc fusion protein. The assay format was adapted according to FIG. 18 (a, b), depending on whether murine or human IL-11 IgG antibodies were tested.
(§2) IgG converted antibodies were subjected to the experimental assay procedure described in Example 19 and IC50 [M], respectively efficacy (%) were calculated accordingly.

murine IL-11 [12] = target: T6, murine IL-11 (mouse, UniProt P47873 22-199); experiment: Tri-complex ELISA, mIL-11 + mIL-11Ra-Fc + mgp130-Fc, inhibition of complex formation
T6 construct: Invigate recombinant protein; biotinylated when immobilized in the Di-complex ELISA; also called mIL11; mIL-11
T6 sequence: T2 sequence
Description: In a first step, 25 μl of goat anti human IgG (Sigma, #12136), diluted 1:1000 in coating buffer (Candor, #121125) was coated on the plate at 4° C. overnight. Next day, the plate was washed one time with 50 μl PBST and then blocked with 50 μl SmartBlock (Candor, #113125) for one hour at room temperature (RT). […] After three additional washes of the coated and blocked microtiter plate with PBS-T, 25 μl of each mixture were added and the assay plate was incubated for one hour at room temperature. After three additional washes, anti-mouse-gp130 biotinylated antibody (R&D, #BAF468) or anti-human gp130 biotinylated antibody (R&D, #BAF228), both 1:1000 in 10% SmartBlock PBS-T, was added and incubated for 1 hour at RT. After three additional washes, a Streptavidin-Peroxidase conjugate (Sigma, #S5512) 1:1000 in SmartBlock PBS-T was added and incubated for one hour at room temperature. After a final three washes, AmplexRed (Fisher Scientific, A12222), 1/1000 in PBS, 0,003% H₂O₂, was added as substrate and incubated for 15 min at RT in the dark. Then, the fluorescence was measured with a plate reader at 535/595 nm. Signals from dose responses were used to calculate IC50 values using GraphPad Prism software. Efficacy was calculated as [(signal measured at lowest antibody concentration−signal measured at the highest antibody concentration)×100] divided by (signal measured at lowest antibody concentration−signal measured in the absence of antibody at an IL11 concentration of 8.2E-11 [M]).
as §2

B2: TPP-30003 (antibody, human IgG1, lambda)
heavy: QVQLVESGGGVVQPGRSLRLSCAASGFTFSHYDMHWVRQAPGKGLEWVAVISYEGSVKFYADSVKGRFTISRDNSKNTLYLQMNSLRAEDTAVYYCARTPGFHFDYWGQGTLVTVSSASTKGPSVFPLAPSSKSTSGGTAALGCLVKDYFPEPVTVSWNSGALTSGVHTFPAVLQSSGLYSLSSVVTVPSSSLGTQTYICNVNHKPSNTKVDKKVEPKSCDKTHTCPPCPAPPVAGPSVFLFPPKPKDTLMISRTPEVTCVVVGVSHEDPEVKFNWYVDGVEVHNAKTKPREEQYNSTYRVVSVLTVLHQDWLNGKEYKCKVSNKQLPSPIEKTISKAKGQPREPQVYTLPPSRDELTKNQVSLTCLVKGFYPSDIAVEWESNGQPENNYKTTPPVLDSDGSFFLYSKLTVDKSRWQQGNVFSCSVMHEALHNHYTQKSLSLSPGK
light: QSVLTQPPSASGTPGQRVTISCSGSSSNIGSNYVNWYQQLPGTAPKLLIYYDDLRPSGVPDRFSGSKSGTSASLAISGLRSEDEADYYCSAWDDSLSGVVFGGGTKLTVLGQPKAAPSVTLFPPSSEELQANKATLVCLISDFYPGAVTVAWKADSSPVKAGVETTTPSKQSNNKYAASSYLSLTPEQWKSHRSYSCQVTHEGSTVEKTVAPTECS
notes: hIgG1, Lambda (HS variant)
RGA Efficacy (%) (human IL-11 [1]): 100% | RGA IC50 (human IL-11 [1]): 1.8 nM | RGA Efficacy (%) (murine IL-11 [2]): 97.1% | RGA IC50 (murine IL-11 [2]): 0.75 nM | RGA Efficacy (%) (cynomolgus IL-11 [3]): 97.1% | RGA Efficacy (%) (rat IL-11 [4]): 99.5% | RGA IC50 (rat IL-11 [4]): 0.72 nM | Kd (human IL-11 [5]): < 0.001 nM | Kd (murine IL-11 [6]): < 0.001 nM | Kd (cynomolgus IL-11 [7]): 0.49 nM | Kd (rat IL-11 [8]): 0.0067 nM | Efficacy (%) (human IL-11 [9]): 8.4% | Efficacy (%) (murine IL-11 [10]): 4.1%

B4: TPP-30002 (antibody, human IgG1, lambda)
heavy: B2 heavy with V57N
light: B2 light
notes: hIgG1, Lambda (HS variant)
Efficacy (%) (human IL-11 [11]): 86.2% | IC50 (human IL-11 [11]): 4.9 nM | Efficacy (%) (murine IL-11 [12]): 102% | IC50 (murine IL-11 [12]): 0.073 nM

The remaining binders from weak to strong by Kd (human IL-11 [5]), led by results:

RGA Efficacy (%) (human IL-11 [1]): 85.1% | RGA IC50 (human IL-11 [1]): 1.2 nM | RGA Efficacy (%) (murine IL-11 [2]): 97.2% | RGA IC50 (murine IL-11 [2]): 1.4 nM | RGA Efficacy (%) (cynomolgus IL-11 [3]): 89.7% | RGA IC50 (cynomolgus IL-11 [3]): 1 nM | RGA Efficacy (%) (rat IL-11 [4]): 90.9% | RGA IC50 (rat IL-11 [4]): 1.3 nM | Kd (human IL-11 [5]): 0.18 nM | Kd (murine IL-11 [6]): 0.13 nM | Kd (cynomolgus IL-11 [7]): 0.24 nM | Kd (rat IL-11 [8]): 0.25 nM | Efficacy (%) (human IL-11 [9]): 37.6% | IC50 (human IL-11 [9]): 0.88 nM | Efficacy (%) (murine IL-11 [10]): 42.2% | IC50 (murine IL-11 [10]): 0.55 nM
B1: TPP-29536 (antibody, human IgG1, lambda)
heavy: EVQLLESGGGLVQPGGSLRLSCAASGFTFSSYGMHWVRQAPGKGLEWVAVISYDGSYKYYADSVKGRFTISRDNSKNTLYLQMNSLRAEDTAVYYCAAGVPDYWGQGTLVTVSSASTKGPSVFPLAPSSKSTSGGTAALGCLVKDYFPEPVTVSWNSGALTSGVHTFPAVLQSSGLYSLSSVVTVPSSSLGTQTYICNVNHKPSNTKVDKKVEPKSCDKTHTCPPCPAPPVAGPSVFLFPPKPKDTLMISRTPEVTCVVVGVSHEDPEVKFNWYVDGVEVHNAKTKPREEQYNSTYRVVSVLTVLHQDWLNGKEYKCKVSNKQLPSPIEKTISKAKGQPREPQVYTLPPSRDELTKNQVSLTCLVKGFYPSDIAVEWESNGQPENNYKTTPPVLDSDGSFFLYSKLTVDKSRWQQGNVFSCSVMHEALHNHYTQKSLSLSPGK
light: QSVLTQPPSASGTPGQRVTISCSGSSSNIGSDYDVHWYQQLPGTAPKLLIYSNEERPSGVPDRFSGSKSGTSASLAISGLRSEDEADYYCSAWDSSLSGPVFGGGTKLTVLGQPKAAPSVTLFPPSSEELQANKATLVCLISDFYPGAVTVAWKADSSPVKAGVETTTPSKQSNNKYAASSYLSLTPEQWKSHRSYSCQVTHEGSTVEKTVAPTECS
notes: hIgG-lambda-HS (human IgG1 with Fc-silencing mutations)

RGA Efficacy (%) (human IL-11 [1]): 96.5% | RGA IC50 (human IL-11 [1]): 1.3 nM | RGA Efficacy (%) (murine IL-11 [2]): 101% | RGA IC50 (murine IL-11 [2]): 0.93 nM | RGA Efficacy (%) (cynomolgus IL-11 [3]): 56.6% | RGA IC50 (cynomolgus IL-11 [3]): 5.6 nM | RGA Efficacy (%) (rat IL-11 [4]): 98.9% | RGA IC50 (rat IL-11 [4]): 2.1 nM | Kd (human IL-11 [5]): 0.064 nM | Kd (murine IL-11 [6]): 0.055 nM | Kd (rat IL-11 [8]): 1.1 nM | Efficacy (%) (human IL-11 [9]): 5.2% | Efficacy (%) (murine IL-11 [10]): 10.1%
B3: TPP-30001 (antibody, human IgG1, lambda)
heavy: B2 heavy with V57N
light: B2 light with N35S
notes: hIgG1, Lambda (HS variant)
